Test results taken from PubChem BioAssay AID588342 (National Center for Advancing Translational Sciences (NCATS), 2011).
In all, about 360,000 compounds went through this assay and about 25,000 (6.9%) were called active. This list was built around the results that the source calls inconclusive (neither active nor inactive); the mix of calls is not that of the screen. Calls come from the whole dose curve; as a rule, active = well fitted inhibition curve with a large enough effect; inconclusive = small, poorly fitted or top-dose-only effect; inactive = flat fitted curve, though single readings scatter. A potency beside an inconclusive call is a rough fit, not a confirmed value.

biological target: Luciferin 4-monooxygenase (Photinus pyralis) (UniProt P08659); test: qHTS profiling assay for firefly luciferase inhibitor/activator using purifed enzyme and Km concentrations of substrates (counterscreen for miR-21 project); settings: purified FLuc, luminescence inhibition; activity change, negative = inhibition: at 57.5 µM (top of the series); note: nearly all actives have a fitted effect of over 55% in size;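 for activity change, negative = inhibition: plate controls were vehicle for no effect and reference inhibitor for full effect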
In short: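 Purified P. pyralis luciferase, 10 nM final, with Km-level 10 uM D-luciferin and 10 uM ATP in 50 mM Tris acetate pH 7.5, 10 mM Mg acetate, 0.01% Tween-20, 0.05% BSA; 6-point qHTS titration about 60 µM downward; luminescence read.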
Potency is the fitted concentration of half-maximal effect; tags give direction and shape of the fitted curve.

UniProt P08659, sequence (P08659 whole entry, looked up): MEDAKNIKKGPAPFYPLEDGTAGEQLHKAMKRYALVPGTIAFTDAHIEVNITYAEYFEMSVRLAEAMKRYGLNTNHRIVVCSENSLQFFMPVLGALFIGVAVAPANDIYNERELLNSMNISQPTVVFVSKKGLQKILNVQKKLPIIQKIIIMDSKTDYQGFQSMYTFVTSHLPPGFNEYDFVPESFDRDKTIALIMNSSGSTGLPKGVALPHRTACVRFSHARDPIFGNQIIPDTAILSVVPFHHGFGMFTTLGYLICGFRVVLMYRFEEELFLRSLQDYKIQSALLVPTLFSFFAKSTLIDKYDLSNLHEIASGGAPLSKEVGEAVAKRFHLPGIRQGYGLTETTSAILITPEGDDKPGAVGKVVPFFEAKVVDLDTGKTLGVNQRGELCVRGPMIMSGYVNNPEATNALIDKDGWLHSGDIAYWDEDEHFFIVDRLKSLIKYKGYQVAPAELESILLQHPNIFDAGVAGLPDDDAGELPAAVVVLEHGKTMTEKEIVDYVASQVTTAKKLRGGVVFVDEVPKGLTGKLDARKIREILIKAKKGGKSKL

Compound | Potency | activity change, negative = inhibition
CC(=O)c1ccc(OCC(=O)Nc2cccc(S(=O)(=O)N3CCCC3)c2)cc1 | inconclusive: 23.9 µM [inhibitor, partial curve] | 
CSc1ccc(-c2nc3ccc(C)cn3c2Nc2ccccc2C)cc1 |  | inactive: -1.61%
CCOc1cc(/C=C2/C(=N)N3OC(C)=CC3=NC2=O)ccc1OCCOc1ccccc1 |  | inactive: 7.83%
CCn1c(-c2ccccc2)csc1=Nc1ccc(S(=O)(=O)O)cc1 | active: 3.79 µM | 
O=C(O)c1c2c(nc3ccc(Cl)cc13)CCC2 | inconclusive: 37.9 µM [inhibitor, partial curve, poor fit] | 
COc1ccc(-c2nnc(C3CCN(C(=O)c4ccccc4F)CC3)o2)cc1 | inconclusive: 30.1 µM [inhibitor, partial curve, poor fit] | 
CCc1ccc(NC(=O)c2onc(C)c2Cl)cc1 | active: 3.38 µM | 
CC(C)(C)c1ccc(OC(=O)c2ccc3nsnc3c2)cc1 | active: 7.57 µM | 
Cc1ccc2nc(-c3cc(NC(=O)c4ccc5c(c4)OCCO5)ccc3Cl)oc2c1 | inconclusive: 6.75 µM [inhibitor, partial curve] | 
CCC(CC)c1nc(C(N)=O)c2[nH]c(=O)n(-c3ccc(OC)c(OC)c3)c2n1 |  | inactive: -0.502%
Cc1csc(Nc2nc(N)c(C(=O)Nc3ccccc3)o2)n1 | inconclusive: 21.3 µM [inhibitor, partial curve] | 
CN(CCC#N)C(=O)COC(=O)/C=C/c1ccc2c(c1)OCO2 |  | inactive: 0.676%
O=C(NCCc1csc(-c2ccc(Cl)cc2)n1)c1cccs1 | inconclusive: 21.3 µM [inhibitor, partial curve] | 
Cc1cc(NC(=O)Nc2ccc(Cl)cc2)no1 | inconclusive: 21.3 µM [inhibitor, partial curve] | 
COc1ccc(NC(=O)/C(C#N)=C/c2ccc(OCc3cc(=O)n4nc(C)sc4n3)cc2)cc1 |  | inactive: -2.99%
C=CCN(c1ccc(C(=O)Nc2ccc(C)cc2)cc1)S(C)(=O)=O | inconclusive: 37.9 µM [inhibitor, partial curve, poor fit] | 
O=S(=O)(Nc1ccc2oc3c(c2c1)CCCC3)c1cc(Cl)ccc1Cl | inconclusive: 9.53 µM [inhibitor, partial curve, poor fit] | 
Cc1cccc2nc(COc3ccc4ccccc4c3Br)cn12 | active: 2.39 µM | 
CC(=O)c1c(C)[nH]c(C(=O)OCC(=O)N2CCN(S(=O)(=O)c3ccc(C)cc3C)CC2)c1C |  | inactive: 1.75%
CC(C)(C)c1ccc(OCc2nc(-c3ccccn3)no2)c(Br)c1 | active: 3.01 µM | 
COC(=O)c1c(NC(=O)c2ccc(C)o2)sc2c1CCCCC2 | active: 12 µM | 
COc1ccc(OC2CCN(C(=O)Nc3ccc(C)cc3)CC2)cc1 | inconclusive: 26.9 µM [inhibitor, single point] | 
COc1ccc(SC[C@H](CC(C)C)N2CCN(C)CCC2=O)cc1 | inconclusive: 15.1 µM [inhibitor, partial curve] | 

Compound | Potency | activity change, negative = inhibition
CC(O)c1cccc(NC(=O)CCCc2ccccc2)c1 (stereo unspecified) |  | inactive: -12.5%
CC(C)Nc1nc(-c2ccccn2)nc(-c2ccccc2)c1C#N |  | inactive: -1.77%
CCCCOC(=O)c1ccc(NC(=O)C(=O)NCc2ccccn2)cc1 | inconclusive: 19 µM [inhibitor, partial curve] | 
CCn1c(SCC(=O)c2ccccc2)nnc1-c1cccnc1 | inconclusive: 21.3 µM [inhibitor, partial curve, poor fit] | 
Cc1ccc(NC(=O)CSc2nc3ncccc3[nH]2)cc1F | inconclusive: 37.9 µM [inhibitor, partial curve, poor fit] | 
Cc1cc(C)c(C)c(S(=O)(=O)NCc2ccc(C(=O)N3CCCCC3)cc2)c1C | inconclusive: 37.9 µM [inhibitor, single point] | 
O=C(CCN1C(=O)C2CCCCC2C1=O)Nc1nc(-c2ccccc2)cs1 (stereo unspecified) |  | inactive: -0.46%
CC(C)c1ccc(NC(=O)COc2ccc(C3SCCS3)cc2)cc1 |  | inactive: -3.15%
Cc1cc(C)c(S(=O)(=O)Nc2cccc(S(=O)(=O)N3CCOCC3)c2)c(C)c1 |  | inactive: -0.12%
O=C(COc1ccccc1)OCC(=O)c1ccc(O)cc1O | inconclusive: 26.9 µM [inhibitor, partial curve, poor fit] | 
O=C(Nc1ccc(N2CCCC2)cc1)c1ccccc1F | active: 2.13 µM | 
COc1cc(CC(=O)Nc2ccc3nc(SC)sc3c2)cc(OC)c1OC | inconclusive: 37.9 µM [inhibitor, partial curve, poor fit] | 
O=C(N/N=C/c1c[nH]c2ccccc12)c1cc2ccccc2o1 | active: 13.5 µM | 
COc1ccc(/C=N/NC(=O)c2ccccc2O)cc1Cn1cc([N+](=O)[O-])cn1 | inconclusive: 23.9 µM [inhibitor, partial curve] | 
Cc1cccc(C)c1OCC(=O)Nc1nc(-c2ccc(Br)cc2)ns1 | inconclusive: 9.53 µM [inhibitor, partial curve] | 
Cc1ccc(C(=O)Nc2nc3ccccc3n3nnnc23)cc1 | inconclusive: 16.9 µM [inhibitor, partial curve] | 
CCc1ccc2oc(-c3ccc(NC(=O)c4ccc(OC)c(Br)c4)cc3)nc2c1 | inconclusive: 16.9 µM [inhibitor, partial curve] | 
COC(=O)c1nc(NC(=O)c2ccc(C(C)(C)C)cc2)n[nH]1 | inconclusive: 23.9 µM [inhibitor, partial curve] | 
COc1ccc(-n2ccnc(SCC(=O)NCc3ccccc3Cl)c2=O)cc1 | inconclusive: 30.1 µM [inhibitor, partial curve, poor fit] | 
FC(F)(F)c1nc(=S)c2ccccc2[nH]1 | inconclusive: 13.5 µM [inhibitor, partial curve] | 
O=S(=O)(c1ccc(Cl)nc1)N1CCCCC1 |  | inactive: -1.53%
Cc1cccc(-n2c(SCC(=O)O)nc3sc4c(c3c2=O)CCCC4)c1 | inconclusive: 37.9 µM [inhibitor, single point] | 
Cc1ccccc1-c1cc(C(=O)Nc2nc3c(s2)CCCC3)c2ccccc2n1 | inconclusive: 7.57 µM [inhibitor, partial curve, poor fit] | 
